Values joined by “and” are separate entries in the source; they are usually repeats but may differ in a detail not shown here. Equal entries are not always repeated. The whole screen tested about 150,000 compounds, of which about 180 (0.12%) were called active. The inconclusive results got no clear call from the source; some entries with a clear call stand among them for comparison. Calls follow the shape of the dose curve; as a rule, active = well fitted cell-killing curve with a large enough effect; inconclusive = small, poorly fitted or top-dose-only effect, or effect the other way; inactive = flat fitted curve, though single readings scatter. Potencies beside an inconclusive call are fits to weak or partial responses and may not hold up.
assay: GF-AFC viability counterscreen for inhibitors of alpha-synuclein gene (SNCA) expression; details: HEK-293-SNCA-luc viability, GF-AFC fluorescence, 24 h; activity change, negative = cytotoxicity: at 57.1 µM (top of the series) unless noted; also: nearly all actives have a fitted effect of over 30% in size;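 as to activity change, negative = cytotoxicity: 0% = DMSO-treated cells and -100% = medium-only wells without cells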
Method in brief: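 HEK-293-SNCA-luc cells (1500/well) plated 24 h, then exposed 24 h to a dilution series; GF-AFC added 30 min at 37C, fluorescence 405/540 nm; normalised to medium-only and DMSO wells, Hill fit.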
Potency is read from the fitted curve at half-maximal effect; tags tell the direction and shape of the fitted curve.

| Structure (SMILES) | activity change, negative = cytotoxicity | Potency |
| --- | --- | --- |
| CC1=C[C@@H](CNC(=O)CC(C)(C)C)[C@H](C(C)C)C[C@H]1CC(=O)NCc1cccnc1 | inactive: -11.5% [at 87.6 µM] |  |
| CCc1ccc(N2CC(c3noc(-c4ccc(OC)nc4OC)n3)CC2=O)cc1 (stereo unspecified) | inactive: 12% |  |
| CCOC(=O)c1c(C)[nH]c(C)c1S(=O)(=O)N1CCC(C(=O)N2CCN(c3cc(C)ccc3C)CC2)CC1 |  | inconclusive: 39.8 µM [cytotoxic, single point] |
| Cc1ccc(NC(=O)CCCn2c3ccccc3c(=O)c3cc(C)ccc32)c(Br)c1 |  | inconclusive: 7.08 µM [rising, partial curve] |
| CC1CCN(S(=O)(=O)c2ccc3c(c2)N(CC(=O)NCCc2ccc(Cl)cc2)C(=O)CO3)CC1 |  | inconclusive: 39.8 µM [cytotoxic, single point] |
| Cc1c(Cl)cccc1Nc1nc(N)nc(CSc2nc3ccccc3s2)n1 |  | inconclusive: 3.55 µM [cytotoxic, single point] |
| O=C1c2[nH]nc(-c3ccccc3)c2C(c2ccccc2)N1c1cccc(C(F)(F)F)c1 (stereo unspecified) |  | inconclusive: 15.8 µM [cytotoxic, partial curve, poor fit] |
| COC(=O)[C@@H]1Cc2ncn(C(C)C)c2CN1S(C)(=O)=O | inactive: 4.67% [at 87.6 µM] |  |
| CC(=O)N1CCNc2cc(Nc3cccc(N(C)C)c3)ncc2C1 | inactive: -7.23% [at 87.6 µM] |  |
| O=C(c1ccc(F)cc1)N1CCC2(C1)C(=O)N(CCc1ccccc1)c1ccccc12 (stereo unspecified) |  | inactive |
| C[C@@H]1O[C@@H](O[C@H]2[C@H](O[C@H]3CC[C@@]4(C)C(CC[C@]5(C)C4C=C[C@]46OC[C@@]7(CCC(C)(C)C[C@H]74)[C@@H](O[C@@H]4O[C@@H](C)[C@H](O)[C@@H](O)[C@H]4O)C[C@]65C)[C@]3(C)CO)O[C@H](CO)[C@@H](O)[C@@H]2O[C@@H]2O[C@H](CO)[C@@H](O)[C@H](O)[C@H]2O)[C@H](O)[C@H](O)[C@H]1O (stereo partly specified) |  | inconclusive: 10.1 µM [cytotoxic, single point] |
| C#CCN(C)C[C@@H]1C=C(C)[C@H](Cc2nnc(-c3ccccc3F)o2)C[C@H]1C(C)C | inactive: -26.2% [at 87.6 µM] |  |
| COc1ccc(CCNC(=O)c2nc3cccnc3n(CCc3ccccc3)c2=O)cc1 | inactive: 3.84% [at 12.5 µM] |  |
| COc1cccc(-c2ccc3c(N)c(C(=O)c4ccc(Br)cc4)sc3n2)c1 |  | inconclusive: 20 µM [rising, partial curve, poor fit] |
| C[C@@H]1CN(CC(=O)N2CC(C)(C)c3ncc(Cc4ccc(F)cc4)cc32)[C@@H](CN2CCOC[C@H]2C)CN1 | inactive: -14.3% |  |
| O=C(c1ccon1)N1CC[C@@H]2[C@@H](CCC(=O)N2CC2CCNCC2)C1 | inactive: 0.0233% |  |
| O=c1n(Cc2cccc(F)c2)c2ccccc2c2nc(-c3ccccc3)nn12 |  | inconclusive: 44.7 µM [cytotoxic, single point] |
| CC(O)/C=C/C1(O)C2(C)COC1(C)CC(O)C2 (stereo unspecified) |  | inconclusive: 37.7 µM [cytotoxic, single point] |
| Cc1ccc(NC(=O)CCSc2nc(-c3ccco3)cc(C(F)(F)F)n2)cc1F |  | inconclusive: 10 µM [rising, partial curve, poor fit] |
| Cc1ccc(NC(=O)Cn2c(-c3ccc(Cl)cc3)nc(C)c(CCO)c2=O)cc1 | inactive: -18.2% |  |
| C=CC(C)(O)C1CC2C3(C)CCCC(C)(C)C3C(O)C(O)C2(C)O1 (stereo unspecified) |  | inconclusive: 23.3 µM [cytotoxic, single point] |

| Structure (SMILES) | activity change, negative = cytotoxicity | Potency |
| --- | --- | --- |
| Fc1ccc2nc(CO[C@H]3CN(Cc4ccc5ccccc5n4)C[C@H]3F)[nH]c2c1 | inactive: -13.2% [at 87.6 µM] |  |
| O=C(O)CCCNc1cc(N2CCN(C3CCCCC3)CC2)c2noc3c2c1C(=O)c1ccccc1-3 |  | inconclusive: 20 µM [cytotoxic, partial curve, poor fit] |
| O=C(c1ccc(Cl)cc1)N1CCn2c(nn(-c3cccc(Cl)c3)c2=O)C1 | inactive: 8.86% |  |
| O=C(NCc1ccc(Cl)cc1)c1nc2sccn2c1-c1cccc(C(F)(F)F)c1 |  | inconclusive: 31.6 µM [cytotoxic, single point] |
| CNC(=O)c1nn(C)c2c1C(C)(C)Cc1cnc(Nc3ccc(N4CCN(C)CC4)cc3)nc1-2 |  | inconclusive: 1.71 µM [cytotoxic, full curve, poor fit] and inconclusive: 7.52 µM [cytotoxic, partial curve] |
| O=C(O)CCc1nccc2c1[nH]c1ccccc12 |  | inconclusive: 23.8 µM [cytotoxic, single point] |
| O=C(CCNc1c(-c2cccc(F)c2)nc2cnccn12)NCc1ccccc1F |  | inconclusive: 28.2 µM [rising, single point] |
| COc1ncccc1-c1cnc2[nH]cc(CC(=O)Nc3cccc(Cl)c3)c2c1 |  | inconclusive: 20 µM [cytotoxic, partial curve, poor fit] |
| Cc1n[nH]c(C)c1CCCN(C)c1cc(C2CC(N)C2)nc(N)n1 (stereo unspecified) |  | inconclusive: 4.47 µM [cytotoxic, partial curve, poor fit] |
| COCCn1c(=O)c(-c2cn(C)c3ccccc23)nc2cnc(Oc3ccccc3)nc21 |  | inconclusive: 12.6 µM [rising, partial curve] |
| CN(C)c1ccc(CNC(=O)c2ccccc2NC(=O)c2nsc3ccccc23)cc1 |  | inconclusive: 7.08 µM [rising, partial curve, poor fit] |
| Cc1noc(C2CCCCCN2C(=O)c2ccoc2)n1 (stereo unspecified) | inactive: 0.676% |  |
| NC(=O)c1cccc(-c2cc3c(cn2)CN(Cc2ccccc2)CCN3)c1 | inactive: -19% [at 87.6 µM] |  |
| CC(O)C(C)n1ncn(-c2ccc(N3CCN(c4ccc(OCC5COC(Cn6cncn6)(c6ccc(Cl)cc6Cl)O5)cc4)CC3)cc2)c1=O (stereo unspecified) |  | inconclusive: 21.2 µM [cytotoxic, partial curve, poor fit] |
| COc1ccccc1Nc1ccnc(N2CCC(C(=O)NCc3cccc(C(F)(F)F)c3)CC2)n1 |  | inconclusive: 31.6 µM [cytotoxic, single point] |
| COc1ccc2c(c1)c(CN1CCCCCCN(C)C(=O)[C@@H]3CCC[C@@H]31)cn2C |  | inconclusive: 0.708 µM [cytotoxic, full curve, poor fit] |
| O=C(NCCCc1ccccc1)c1nc2sccn2c1-c1ccc(F)cc1 |  | inconclusive: 39.8 µM [cytotoxic, single point] |
| COc1ccc(NC(=O)CCCN2C(=O)CCn3nc(-c4cn(C)c5ccccc45)cc32)cc1OC |  | inconclusive: 11.2 µM [cytotoxic, partial curve, poor fit] |
| Oc1ccc(NCc2ccccc2OCc2ccccc2F)cc1 |  | inconclusive: 35.5 µM [cytotoxic, single point] |
| CCCNC(=O)c1c(C)oc2ccn(Cc3ccc(F)cc3)c(=O)c12 | inactive: -7.68% |  |
| COc1ccc(-c2nc3cnc(N(C)C)nc3n(C[C@H]3CCCO3)c2=O)cc1 |  | inconclusive: 7.08 µM [rising, partial curve] |

| Structure (SMILES) | activity change, negative = cytotoxicity | Potency |
| --- | --- | --- |
| Cc1cnc(NC(=O)Nc2cc(Br)c(C)cc2OCC2CNCCO2)cn1 (stereo unspecified) |  | inconclusive: 11.9 µM [cytotoxic, partial curve, poor fit] |
| CCOCCNC(=O)c1cc(-c2cccc(C(F)(F)F)c2)c2cccn2n1 | inactive: -15.2% |  |
| O=C(Nc1cc(F)c(F)c(F)c1)N1CCC(Oc2ncccc2C(=O)N2CCCCC2)C1 (stereo unspecified) | inactive: -6.56% |  |
| Cc1ccc(CN2CCN(C3CCN(C(=O)Nc4ccc(C)cc4Cl)CC3)C(=O)C2=O)cc1 |  | inconclusive: 10 µM [cytotoxic, partial curve, poor fit] |
| O=C1c2ccccc2C(=O)c2c(NCCc3ccc(O)cc3)ccc(NCCc3ccc(O)cc3)c21 |  | active: 28.2 µM |
| CCc1nc2c(c(-c3ccc(Cl)cc3)n1)CN(Cc1ccc(OC)cc1)CC2 |  | inconclusive: 39.8 µM [cytotoxic, single point] |
| CCc1ccc(NC(=O)Cn2c(=O)n(-c3ccc(OC)cc3)c(=O)c3ccc(C(=O)NCc4ccc(C)cc4)cc32)cc1 |  | inconclusive: 1.58 µM [rising, full curve, poor fit] |
| N#CCCn1c(=O)c(-c2cc(F)cc(F)c2)nc2cnc(N3CCOCC3)nc21 |  | inconclusive: 14.1 µM [rising, partial curve] |
| CCn1cc(C(=O)N(C)c2ccc(C(C)C)cc2)c2cc(OC)c(OC)cc2c1=O |  | inconclusive: 15.8 µM [cytotoxic, single point] |
| COc1cccc(CNC(=O)c2ccc3nc(-c4ccccn4)oc3c2)c1 | inactive: 12% |  |
| CC1(c2ccccc2)N(Cc2ncccn2)C(=O)OC12CCN(Cc1cccc(OC(F)(F)F)c1)CC2 (stereo unspecified) | inactive: -28% |  |
| O=c1c(-c2ccc(F)cc2)nc2cnc(N3CCNCC3)nc2n1Cc1cccs1 |  | inconclusive: 14.1 µM [rising, partial curve] |
| CCc1ccc(CNCc2c(C(=O)O)n(Cc3ccc(C)cc3)c3cc(C)ccc23)cc1 |  | inconclusive: 28.2 µM [cytotoxic, single point] |
| CCOC(=O)c1ccccc1NC(=O)COc1ccccc1-c1nnc(-c2ccccc2)o1 |  | inconclusive: 7.94 µM [cytotoxic, partial curve, poor fit] |
| COC1CCN(c2ccc3nnc(-c4ccccn4)n3n2)CC1 | inactive: 0.78% [at 87.6 µM] |  |
| COc1ccc(C(=O)NC2CN(c3ccnc4ccnn34)C2)cc1 | inactive: 2.09% |  |
| O=C(NCCn1cccc1-c1nc(-c2ccc3c(c2)OCO3)no1)c1ccc(F)cc1 |  | inconclusive: 39.8 µM [cytotoxic, single point] |
| COc1ccccc1-n1c(=O)c(C(=O)NCc2cccc(F)c2)nc2cccnc21 | inactive: 4.69% |  |
| Cc1cccc(C(=O)N2c3nc(-c4ccco4)nn3C3(CCCCC3)[C@@H]3CCCC[C@@H]32)c1 |  | inconclusive: 2.51 µM [cytotoxic, full curve] |
